Laboratory results published in the supplement of paper PMC3334620.
The full ranking holds about 33,000 sequences; the median of “E-score (-0.5 to 0.5)” is about -0.013, and the highest 2% start at about 0.3. The list shows a part of the results.

These sequences were tested against T1, Msn1 (UniProt P22148) (assay: PBM E-score (8-mer binding enrichment) (E-score (-0.5 to 0.5)); higher = stronger / more preferred TF binding; most listed sequences are background and not binding sites). Conditions: protein concentration: 200 nM; construct: GST-full length.
T1 sequence: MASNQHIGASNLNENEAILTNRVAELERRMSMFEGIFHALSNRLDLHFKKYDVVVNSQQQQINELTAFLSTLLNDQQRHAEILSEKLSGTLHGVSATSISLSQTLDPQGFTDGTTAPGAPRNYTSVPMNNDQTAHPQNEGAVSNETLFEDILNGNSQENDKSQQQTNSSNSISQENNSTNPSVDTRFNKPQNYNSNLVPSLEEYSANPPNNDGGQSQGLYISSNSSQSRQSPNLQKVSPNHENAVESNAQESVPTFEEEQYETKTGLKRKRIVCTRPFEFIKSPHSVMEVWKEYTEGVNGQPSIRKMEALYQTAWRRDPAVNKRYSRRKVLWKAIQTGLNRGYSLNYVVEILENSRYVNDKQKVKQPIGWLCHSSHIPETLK
Outline: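 Using PURExpress in vitro transcription/translation, GST-tagged yeast transcription factors were made in full-length or DNA-binding-domain form. These were applied at about 100-200 nM to double-stranded universal all-10-mer Agilent arrays, and bound protein was detected with fluorescent anti-GST. Scans were normalised with masliner before the Universal PBM Analysis Suite assigned E-scores to ungapped eight-base words pooled with their reverse complements.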

Sequence	PBM E-score
AGACTGGA	0.0289
CACATGTG	-0.149
CATCAACA	0.0868
TGAGCTCA	0.0495
CCTGGCTA	-0.0297
CAGGAGTC	-0.119
CACAAGGC	0.0181
CCCTCAGG	-0.273
ACTGAAAT	0.17
ATGATGTC	0.3
AGTTACTG	-0.0503
AGAAATGG	-0.076
ACTCGGGA	0.209
CGATCCGC	-0.0465
AGTATTAC	0.0644
AACGTGGC	-0.00246
AAGCCCAA	-0.183
CACAGAGA	-0.035
CAACCGGA	0.0644
CAATCTAG	0.131
CACTAACG	-0.0567
CCTTCCTC	-0.288
CGGTAAAA	0.171
GACCTGCC	-0.13
GAATATTC	0.201

Sequence	PBM E-score
GCGTGACC	-0.0242
CGTGTCTC	0.26
AAGCAGAT	0.00204
ACGATACC	0.0844
TGCGATAA	0.208
CGTACACA	0.0883
ATGTCACC	0.303
ACTAGGCG	0.0151
CGAATCGA	0.213
TGCAAACA	-0.222
ATCCCGCG	0.156
CGTTGCTC	-0.145
GTTGTAGA	0.111
CGAAAAGA	0.141
ATGTAGAA	-0.0168
CAATCAAG	0.0312
CACAGTTA	0.142
AAATCGCC	-0.132
ATGAGTTG	0.0774
CTCGTGGA	0.208
GAGCGTGA	-0.149
ATAAGGCA	-0.188
GGGAGCTA	-0.213
CGTACGCC	-0.0682
ATGAAGAC	0.231

Sequence	PBM E-score
TAGCTGGA	-0.299
AACTTTAA	0.117
AAGGATCA	0.0436
AAAAATTA	0.253
CTGTCACA	0.0788
GAAAGCCA	-0.0639
ATGCGTGC	-0.0193
GAATTGCC	0.0969
ATATTCCC	0.0634
GCAAAGGA	0.0453
ACATACCC	0.136
ATCAACTA	0.175
CAAGAGGA	0.0591
GACCAACC	-0.0749
AAAGCAGA	0.0657
CGCCAGCG	-0.278
AAGGTTTA	-0.234
TTGTGAAA	0.0831
ACATGATC	-0.00083
ACGGAAGC	0.0447
CACCCTGC	-0.236
GCATTCCC	-0.188
TACCTCAA	0.145
ATCTTCTA	0.00981
AAGGGTCA	-0.0391

Sequence	PBM E-score
GATTTGGA	-0.0689
CATAAATC	0.115
GAGTAACA	0.135
CCGGGAAA	0.0237
AAAGCATG	-0.0693
ATTATGCA	-0.0208
GGGAGGGA	-0.0955
GCTCTCCC	-0.29
AAAATATT	0.156
ATGTCCGA	0.475
AGTGGACC	-0.0955
AATGGGGC	-0.106
CAGGGATG	-0.213
CTGTAACC	-0.00985
CGATTTAA	0.0978
CATTAAAC	0.182
AAGGAAAC	-0.168
ACCCAGTG	-0.173
GACGGGAC	-0.014
GAATCCAA	-0.116
ACACACTA	0.00839
ATCCAACG	-0.0894
AATGCATT	0.244
AACCATGA	0.137
CAGGTTAC	0.0278

Sequence	PBM E-score
CGGAGAGA	-0.0276
CAGGATGG	-0.225
AGGCGAAA	-0.11
TAGCGATA	-0.0209
GGGCGAAC	-0.00029
CGGGCGAA	0.0145
GTCGGTTA	0.0371
ACATTGGC	-0.0178
ACCGTCGT	0.142
CATCTTCC	0.168
CACCGGAC	0.131
CTATTTCA	0.0975
CTGGGCTA	-0.198
AAATCATA	0.167
CGCCAGGA	-0.0604
AGCGACGG	-0.0465
ACGAGCAG	-0.0648
AAGCGAAC	-0.129
ATACGACC	-0.0618
CGCGCTCA	-0.0403
ACGCCGTA	-0.0147
ACAACACT	0.105
CCAAATAC	-0.058
CTCGGAAA	0.115
CTTGCAGA	-0.0567

Sequence	PBM E-score
GGATGTTA	-0.0664
CAAGCATA	-0.105
CTATAATA	0.016
AGGGGTAT	-0.193
GTCGCGGA	0.121
AACATAGC	0.13
CACATCCA	-0.0341
GCATAGGC	-0.256
CCAGCGGA	-0.171
ACTAAATA	0.293
CGATAGCG	-0.188
ACGCATGC	0.0965
CCCTCTTA	-0.0513
CAACGTAC	0.00734
AAGGCTTG	-0.0455
ACAGCCCT	-0.239
GTTATCTA	-0.0355
CGACATCG	0.0697
CTCTCACC	-0.131
GACCAGCA	-0.0149
AACACCGT	-0.0207
AGGGTTCG	-0.165
TCCTTGAA	0.112
ACGGATAT	0.0858
CCAGGTCC	-0.183

Sequence	PBM E-score
TATTGACA	-0.0167
AGCGCGAA	0.0717
CTGCGGAA	-0.0023
GATATTCA	0.124
GCCCCCCC	-0.408
AATTAGCT	-0.139
ACCACGGG	-0.129
AATTTTAC	0.177
CCAAAAAG	0.126
GTGTTATA	0.118
GGAGGCTA	-0.265
CCCAAGGC	-0.0901
GTTGGGTA	-0.0801
ATAATCGC	0.0651
CCCGCCGA	-0.168
ACATTAAG	0.32
ACCGGTTA	0.085
CATAACCC	-0.111
AGAAACAA	0.222
CTTGCAAA	0.0128
GAATTGTA	0.151
CAGATGCA	-0.34
